# Results: the supplement of paper PMC9446081
# In all, about 39,000 compounds went through this assay and about 220 (0.56%) showed activity. The list shows a part of the results.
# Tested on: Escherichia coli K-12 BW25113
# Test: relative growth (OD600 normalised to plate interquartile mean) (fraction); higher = less growth inhibition, active = 0.2 or less
# Settings: 50 µM; LB; incubation time: overnight (16-24 h)
# 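Also: static incubation at 37 °C against the wild-type strain, values averaged over two biological replicates.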
row,Compound,relative growth
1,C[C@@H]1CN([C@@H](C)CO)C(=O)Cc2cc(NC(=O)Nc3cccc4ccccc34)ccc2O[C@H]1CN(C)CC1CCCCC1,inactive: 1.05
2,C[C@@H]1CCCCO[C@H](CN(C)S(=O)(=O)c2ccc(F)cc2)[C@@H](C)CN([C@H](C)CO)C(=O)c2cc(NS(C)(=O)=O)ccc2O1,inactive: 1.03
3,O=C(Cc1ccccn1)NCC[C@@H]1CC[C@H](NC(=O)CN2CCOCC2)[C@H](CO)O1,inactive: 0.962
4,C[C@@H](N)CO,inactive: 1.02
5,C[C@@H]1CN([C@@H](C)CO)C(=O)c2cccc(NS(=O)(=O)c3cn(C)cn3)c2O[C@H]1CN(C)S(=O)(=O)c1ccc(Cl)cc1,inactive: 1
6,Nc1cc(=O)nc2sc(C3CC3)nn12,inactive: 1.02
7,COc1ccc2c3c([nH]c2c1)[C@H](CO)N(Cc1ccccc1)C[C@]13CCN(CC1)C(=O)Nc1cccc(c1)F,inactive: 0.996
8,O=C(C1=C[C@H](c2ccsc2)C[C@H](OCCCCO)O1)N1CCN(Cc2ccc3c(c2)OCO3)CC1,inactive: 1.01
9,Nc1nc2c(ncn2COCCO)c(=O)[nH]1,inactive: 1.06
10,CNC[C@@H]1Oc2ccc(NC(=O)CCN3CCOCC3)cc2CC(=O)N([C@H](C)CO)C[C@H]1C,inactive: 0.987
11,CN(C)CCOc1ccc([N+](=O)[O-])cn1,inactive: 1.01
12,C[C@@H]1CN([C@@H](C)CO)C(=O)Cc2cc(NS(=O)(=O)c3ccccc3)ccc2O[C@H]1CN(C)S(C)(=O)=O,inactive: 1
13,CNC[C@@H]1OCCCC[C@@H](C)Oc2ccc(NS(=O)(=O)c3c(C)noc3C)cc2C(=O)N([C@H](C)CO)C[C@H]1C,inactive: 0.984
14,C[C@H]1CN([C@@H](C)CO)C(=O)c2cc(NC(=O)Nc3cccc4ccccc34)ccc2O[C@@H]1CN(C)C(=O)Nc1ccc(F)cc1,inactive: 1
15,C[C@H](CO)N1C[C@H](C)[C@@H](CN(C)S(=O)(=O)c2cn(C)cn2)Oc2c(NC(=O)Nc3ccccc3)cccc2C1=O,inactive: 1
16,CC(C)NC(=O)N(C)C[C@@H]1OCCCC[C@H](C)Oc2ccc(NS(C)(=O)=O)cc2C(=O)N([C@@H](C)CO)C[C@H]1C,inactive: 0.991
17,C[C@@H]1CN([C@H](C)CO)S(=O)(=O)c2ccc(C#CC3CCCC3)cc2O[C@@H]1CN(C)Cc1cncnc1,inactive: 0.979
18,COc1ccc([Si](C)(C)[C@H]2[C@H](CCO)O[C@@]3(C(=O)N(Cc4cccc(N5CCCCC5=O)c4)c4ccccc43)[C@@H]2C)cc1,inactive: 1
19,C[C@H]1CN([C@@H](C)CO)S(=O)(=O)c2ccc(C3=CCCCC3)cc2O[C@H]1CN(C)C(=O)C1CCOCC1,inactive: 0.997
20,C[C@@H]1CN([C@H](C)CO)C(=O)c2cccc(NC(=O)Nc3ccc4c(c3)OCO4)c2O[C@@H]1CN(C)Cc1ccc(Oc2ccccc2)cc1,inactive: 0.993
21,CC(C)(CCCCCC(O)CCCCCC(C)(C)C(=O)O)C(=O)O,inactive: 1.02

row,Compound,relative growth
1,C[C@H](CO)N1C[C@H](C)[C@@H](CN(C)S(=O)(=O)c2ccc(Oc3ccccc3)nc2)OCc2cnnn2CCCC1=O,inactive: 1
2,C[C@@H]1CN([C@@H](C)CO)C(=O)CCCn2cc(nn2)CO[C@H]1CN(C)Cc1ccc(C(=O)Nc2ccccc2N)cc1,inactive: 0.989
3,Nc1nc(/C(=N/O)C(=O)N[C@@H]2C(=O)N3C(C(=O)O)=C(/C=C4\CCN([C@@H]5CCNC5)C4=O)CS[C@H]23)ns1,active: 0.0367
4,COc1ccccc1C#Cc1ccc2c(c1)O[C@@H](CN(C)Cc1cccnc1)[C@@H](C)CN([C@@H](C)CO)S2(=O)=O,inactive: 1.03
5,Cn1cnc(S(=O)(=O)N2C[C@@H](O)COC[C@H]3O[C@H](CC(=O)N4CCN(c5ccccc5)CC4)CC[C@@H]32)c1,inactive: 1.01
6,CC(=O)NCCCC[C@@H]1NC(=O)[C@@H]2C[C@H](C(=O)NCc3ccc(F)cc3)[C@H](c3ccc(O)cc3)N2C1=O,inactive: 1.02
7,C[C@@H](N)[C@H]1CC[C@H](C(=O)Nc2ccncc2)CC1,inactive: 1
8,Cc1ccc(S(=O)(=O)Nc2ccc3c(c2)C(=O)N([C@H](C)CO)C[C@@H](C)[C@H](CN(C)S(C)(=O)=O)OCCCC[C@@H](C)O3)cc1,inactive: 0.985
9,Cc1ccc(S(=O)(=O)Nc2cccc3c2O[C@@H](CN(C)S(=O)(=O)c2cn(C)cn2)[C@H](C)CN([C@H](C)CO)C3=O)cc1,inactive: 1.01
10,Cc1cc(C(=O)Nc2cccc3c2O[C@H](CN(C)C(=O)Nc2c(C)noc2C)[C@@H](C)CN([C@@H](C)CO)C3=O)n(C)n1,inactive: 1
11,COc1ccc(CN(C)C[C@H]2OCCCC[C@@H](C)Oc3ccc(NC(=O)C4CCCCC4)cc3C(=O)N([C@@H](C)CO)C[C@H]2C)cc1,inactive: 0.97
12,C[C@H](CO)N1C[C@H](C)[C@H](CN(C)Cc2ccc(C(=O)O)cc2)Oc2ncc(C#CCN(C)C)cc2C1=O,inactive: 1.01
13,Nc1ccn([C@@H]2O[C@H](CO)C[C@H]2O)c(=O)n1,inactive: 0.972
14,NCCSSCCN,inactive: 0.955
15,O=C(C[C@H]1C[C@H]2c3cc(NC(=O)Nc4ccccc4F)ccc3O[C@H]2[C@H](CO)O1)NCc1ccc(Oc2ccccc2)cc1,inactive: 1.02
16,C[C@H](O)C#Cc1cnc2c(c1)C(=O)N([C@H](C)CO)C[C@@H](C)[C@H](CN(C)C(=O)CN1CCOCC1)O2,inactive: 1.01
17,C[C@H](CO)N1C[C@H](C)[C@@H](CN(C)Cc2ccc(-c3ccccc3)cc2)Oc2c(NC(=O)Nc3cccc4ccccc34)cccc2C1=O,inactive: 1.02
18,C[C@H](CO)N1C[C@H](C)[C@H](CN(C)Cc2ccc3c(c2)OCO3)OCCCC[C@H](C)Oc2ccc(NC(=O)Nc3ccccc3)cc2C1=O,inactive: 0.993
19,CCC[C@@H](O)C#Cc1cnc2c(c1)C(=O)N([C@H](C)CO)C[C@H](C)[C@H](CN(C)C(=O)Nc1ccc(F)cc1)O2,inactive: 0.965
20,COc1ccc(S(=O)(=O)Nc2ccc3c(c2)CC(=O)N([C@@H](C)CO)C[C@@H](C)[C@H](CN(C)S(=O)(=O)c2cn(C)cn2)O3)cc1,inactive: 0.966
